Results are given in words; binding and its absence hold for the method and conditions named. Binding seen in cells or lysates may run through a third protein. Some entries that bind do so weakly or less than the wild type. Sequences can lack the tags named with a protein.
Assays:
[1] = target: T1, FRQ E835D, V5H6-tagged (Neurospora crassa) (UniProt P19970); assay: co-IP; V5H6-tagged FRQ (wild type or mutant) pulled down with V5 agarose from Neurospora lysate (cultures in the light, 25 °C); 50 mM Hepes pH 7.4, 137 mM NaCl, 10% glycerol, 0.4% NP-40; 4 °C, 2 h; Western blot with FRQ, FRH, WC-1 and WC-2 antibodies
T1 sequence: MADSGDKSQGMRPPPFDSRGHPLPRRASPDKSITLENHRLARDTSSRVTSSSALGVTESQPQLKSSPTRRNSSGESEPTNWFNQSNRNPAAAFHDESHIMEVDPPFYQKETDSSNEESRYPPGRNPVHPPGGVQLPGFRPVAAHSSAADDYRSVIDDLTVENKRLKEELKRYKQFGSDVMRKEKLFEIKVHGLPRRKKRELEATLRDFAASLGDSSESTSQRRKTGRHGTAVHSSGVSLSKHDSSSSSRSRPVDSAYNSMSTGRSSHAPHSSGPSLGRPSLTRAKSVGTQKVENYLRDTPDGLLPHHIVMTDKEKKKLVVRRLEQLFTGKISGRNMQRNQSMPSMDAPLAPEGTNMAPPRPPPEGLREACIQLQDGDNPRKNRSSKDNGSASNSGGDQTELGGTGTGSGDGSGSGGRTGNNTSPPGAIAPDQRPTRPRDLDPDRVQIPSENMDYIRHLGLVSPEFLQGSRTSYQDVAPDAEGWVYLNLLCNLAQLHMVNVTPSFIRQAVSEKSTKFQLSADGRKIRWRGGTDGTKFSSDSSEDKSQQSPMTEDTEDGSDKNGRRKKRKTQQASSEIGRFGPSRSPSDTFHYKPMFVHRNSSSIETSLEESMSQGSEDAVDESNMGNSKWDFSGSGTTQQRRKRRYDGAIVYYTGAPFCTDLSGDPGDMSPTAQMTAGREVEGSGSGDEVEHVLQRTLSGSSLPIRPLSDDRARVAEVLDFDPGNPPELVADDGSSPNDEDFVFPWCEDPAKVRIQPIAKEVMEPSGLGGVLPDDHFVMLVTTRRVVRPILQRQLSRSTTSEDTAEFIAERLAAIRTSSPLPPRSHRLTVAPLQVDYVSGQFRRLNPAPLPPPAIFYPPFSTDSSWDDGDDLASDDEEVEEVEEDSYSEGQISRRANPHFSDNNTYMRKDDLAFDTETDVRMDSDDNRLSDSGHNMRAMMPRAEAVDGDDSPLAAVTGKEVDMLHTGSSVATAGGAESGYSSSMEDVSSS

[2] = target: T2, FRQ D664A, D667A, V5H6-tagged (Neurospora crassa) (UniProt P19970); assay: as above
T2 sequence: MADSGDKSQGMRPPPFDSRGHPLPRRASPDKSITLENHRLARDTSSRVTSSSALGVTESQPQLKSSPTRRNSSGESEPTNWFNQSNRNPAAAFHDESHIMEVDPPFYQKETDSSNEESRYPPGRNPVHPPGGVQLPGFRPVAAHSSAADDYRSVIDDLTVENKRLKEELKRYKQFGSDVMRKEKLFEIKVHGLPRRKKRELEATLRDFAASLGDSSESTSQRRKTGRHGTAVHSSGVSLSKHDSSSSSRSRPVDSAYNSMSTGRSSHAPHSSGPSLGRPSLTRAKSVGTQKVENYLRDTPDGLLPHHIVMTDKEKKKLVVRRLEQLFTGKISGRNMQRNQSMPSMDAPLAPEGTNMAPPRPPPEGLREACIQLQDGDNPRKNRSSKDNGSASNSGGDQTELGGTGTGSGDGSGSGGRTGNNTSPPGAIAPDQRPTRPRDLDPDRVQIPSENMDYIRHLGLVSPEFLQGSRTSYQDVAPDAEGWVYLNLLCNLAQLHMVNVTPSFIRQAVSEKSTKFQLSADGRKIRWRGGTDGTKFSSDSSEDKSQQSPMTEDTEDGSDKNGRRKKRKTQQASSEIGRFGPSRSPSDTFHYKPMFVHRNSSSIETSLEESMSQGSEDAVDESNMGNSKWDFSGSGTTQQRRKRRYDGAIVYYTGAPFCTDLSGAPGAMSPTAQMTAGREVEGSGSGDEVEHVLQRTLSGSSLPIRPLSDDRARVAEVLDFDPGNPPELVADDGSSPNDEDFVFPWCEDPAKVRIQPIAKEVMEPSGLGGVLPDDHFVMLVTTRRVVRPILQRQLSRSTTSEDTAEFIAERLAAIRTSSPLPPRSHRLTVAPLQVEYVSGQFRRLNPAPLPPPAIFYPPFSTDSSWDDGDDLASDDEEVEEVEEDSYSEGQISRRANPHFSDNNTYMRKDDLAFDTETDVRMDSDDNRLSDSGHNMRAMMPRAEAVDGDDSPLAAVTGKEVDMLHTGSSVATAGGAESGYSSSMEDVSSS

B1: White Collar-2 (WC-2) (protein, UniProt P78714 1-530)
chain: MSHGQPPPGSSMYGFGAMGMGSGMGSGMGSGMGTGMGTGMGTGMSASQMTSDPQDMMSLLDTSVFPGFDGMSMSLDVGDSMSNPFTPVSVPPPLPAGNAGPSHVGVCGGHGAPDQLFSPDDLIATSMSSAGPMIATPTTTTSGPSGGPSSGGGSTLTEFTKRRNWPAKVVEELQDWEHILDANGRIKHVSPSVEPLTGYKPPEIIDLFLRDLIHPDDVGVFTAELNEAIATGSQLRLFYRFRKKDGNWTIFETVGHAHIAAAKFAPNPQNQSPFCQAVFMMARPYPTKNAGLLDSFLEHKIENERLKRRIAELRREEQEEQEESHRTWRMSQEGRSDVTPSDDTATQMGMTPFYIPMNAQADVMMPPPSQPASSLNIALTRENLEGIAGSRPDSIREKMLRYEGNHADTIEMLTGLKYQEGERSHGITTGNASPTLIKGDAGIAIPLDRDPRTGEKKKKIKVAEEYVCTDCGTLDSPEWRKGPSGPKTLCNACGLRWAKKEKKKNANNNNNGGGIGGHNDIHTPMGDHMG
B1 was tested, and the binding [1] was “binds” and the binding [2] was “binds weakly”.

B2: FRQ-interacting RNA helicase (FRH) (protein, UniProt Q1K502 1-1106)
chain: MDDLFEVFEEQPRAQKKRKASPDVEMADGAAAAAPVANAAAAVTHPQAQAAPAPQKDNIDNNDNNNNNTTTSAVQPTIPNGDAAAAADDVQSPQSPHGLGDNKRRKKTDEAEPIMTDAFQTAESREVTGAQGFAPTEGESIVLSHNIQHQVALPPDLDYEYIPLSEHKPPAEPARTYSFKLDPFQALSVASIEREESVLVSAHTSAGKTVVAEYAIAQCLKKNQRVIYTSPIKALSNQKYRDFQAEFGDVGLMTGDVTINPTASCLVMTTEILRSMLYRGSEIMREVAWVVFDEIHYMRDKIRGVVWEETIILLPDKVRYVFLSATIPNAFQFAEWIAKIHRQACHVVYTDFRPTPLQNYFFPAGGKGILLIVDEKGNFKENNFNQAMAMIEEKKGTDSNDWSAKQKGKGKNKKTNKGGEAADEKADIAKIIKMILKKNFQPVIVFNFSKRECEQMALASSSMKFNAPDEENMVNKVFENALASLSEDDKNLPQISNILPLLRKGIGVHHSGLLPILKETIEILFQEGLIKVLFATETFSIGLNMPARTVVFTQVTKWDGQQRRPLTSSEYIQMAGRAGRRGLDDRGIVIMMVDDKLEPETARAIVVGNQDKLNSAFHLGYNMVLNLLRIEAISPEYMLERCFFQFQNAASVPQLERELISLQQERDAIIIPDESIVKDYYGVRQQLEEYNKDMVFVIQHPQNCLGFFQEGRLIHIKSPSGVDYGWGVLIKHIQRQTPKNGQPPYPEQESYVLDVLLKVSGDFNPKTRGEGPMPEGIMPAGKDSKNARWEVVPCLLNCLRALGQLRVFLPKRLESADEKDGVGKAVDEISRRFPDGIPILDPMENMGINDDSFKKLLRKIEVLESRLVANPLHNSPLLVELWNQYSLKMQLGEQIKEKKKAIARAHSVAQLDELKSRKRVLRRLGFINDAEVVQMKARVACEISSTEGHELLLAELLFNRFFNELSPEICACILSCFIFDEKIETQALKEELAKPFREIQAQARIIAKVSAESKLDVNEDEYVQSLKWQLMETVLAWAQGRPFSEICKMTNVYEGSLIRLFRRLEELLRQMAEAARVMGSEELKDKFELSLSKIRRDIVSFNSLYL
With B2 the binding [1] was “binds” and the binding [2] was “binds”.
